Hit rate of the full screen: of about 310,000 compounds, about 2,200 (0.71%) showed an effect of 50% or more. The effect is printed as a negative number. The list shows a part of the results.
Molecular target: human ether-à-go-go-related gene (hERG) potassium channel (human, UniProt Q12809)
Assay: primary screen, population patch clamp on CHO cells stably expressing hERG

Sequence of human ether-à-go-go-related gene (hERG) potassium channel (Q12809 whole entry, looked up): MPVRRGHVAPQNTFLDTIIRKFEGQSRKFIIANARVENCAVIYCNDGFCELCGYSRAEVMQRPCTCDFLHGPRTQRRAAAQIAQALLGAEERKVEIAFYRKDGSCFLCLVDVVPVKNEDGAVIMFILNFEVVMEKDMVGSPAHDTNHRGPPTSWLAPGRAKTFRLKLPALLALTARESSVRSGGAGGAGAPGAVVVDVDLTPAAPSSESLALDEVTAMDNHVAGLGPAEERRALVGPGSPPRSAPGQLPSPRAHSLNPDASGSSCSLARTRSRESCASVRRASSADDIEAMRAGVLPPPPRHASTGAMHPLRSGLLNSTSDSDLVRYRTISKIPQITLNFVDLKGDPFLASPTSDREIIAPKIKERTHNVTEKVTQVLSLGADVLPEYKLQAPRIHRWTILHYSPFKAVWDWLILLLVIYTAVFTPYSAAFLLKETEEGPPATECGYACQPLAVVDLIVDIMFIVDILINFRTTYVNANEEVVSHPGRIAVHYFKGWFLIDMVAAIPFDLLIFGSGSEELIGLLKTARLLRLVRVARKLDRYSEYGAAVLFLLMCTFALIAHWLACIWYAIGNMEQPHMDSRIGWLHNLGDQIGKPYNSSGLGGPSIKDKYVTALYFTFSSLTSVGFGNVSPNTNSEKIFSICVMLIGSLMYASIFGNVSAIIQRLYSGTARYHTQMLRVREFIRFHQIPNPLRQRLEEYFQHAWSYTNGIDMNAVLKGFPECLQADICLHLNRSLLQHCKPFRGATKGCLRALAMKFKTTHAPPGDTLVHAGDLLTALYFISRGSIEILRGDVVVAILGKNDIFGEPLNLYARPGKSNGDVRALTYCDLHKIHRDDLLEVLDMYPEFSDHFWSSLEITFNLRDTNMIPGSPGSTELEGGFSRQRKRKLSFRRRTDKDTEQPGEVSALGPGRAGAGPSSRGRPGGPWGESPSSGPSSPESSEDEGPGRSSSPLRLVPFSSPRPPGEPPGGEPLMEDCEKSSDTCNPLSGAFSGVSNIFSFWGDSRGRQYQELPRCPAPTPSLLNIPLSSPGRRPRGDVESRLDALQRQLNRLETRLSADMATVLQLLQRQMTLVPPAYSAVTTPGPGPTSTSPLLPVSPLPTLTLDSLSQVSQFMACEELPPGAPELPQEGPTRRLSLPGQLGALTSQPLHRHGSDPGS

Row | Compound | hERG current change (%, negative = inhibition) at 1uM [%]
1 | CCN1C(=O)c2ccccc2S(=O)(=O)c2ccc(C(=O)NCCOC)cc21 | 12
2 | O=C(CSc1nc2ccccc2s1)NC(=O)NCc1ccco1 | 10.4
3 | O=C(Nc1ccc(F)c(F)c1)C1CCN(S(=O)(=O)c2cccc3nonc23)CC1 | 13.1
4 | Cc1cccc(C)c1NC(=O)CN(C)S(=O)(=O)c1ccc(-c2ccc(=O)[nH]n2)s1 | -21.1
5 | CCCCOc1ccc(C(=O)NNC(=S)NC(=O)CC)cc1 | 13.1
6 | COc1cccc(CCC(=O)N(C)C2CCCN(Cc3ccccc3F)C2)c1 (centres unmarked) | 16.4
7 | CN(NC(=O)c1ccccc1)C1=NS(=O)(=O)c2ccccc21 | 17.5
8 | COc1ccc(-c2nnc3ccc(SCC(=O)N4CCOCC4)nn23)cc1 | 1.7
9 | CC(C)(C)n1nnnc1C(c1cccc(C#N)c1)N1CCN2CCCC2C1 (centres unmarked) | 6.11
10 | COCC(=O)N/N=C\c1ccc(OC/C=C/c2ccccc2)c(OC)c1 | 2.14
11 | O=C(CNC(=O)C1CCCCC1)Nc1ccccc1 | 19.9
12 | Cc1ccc(N/C=C(\[N+](=O)[O-])S(=O)(=O)c2ccccc2)cc1 | 13.1
13 | O=C(O)C1CC(=O)N(c2ccc(OCc3ccccc3)cc2)C1 (centres unmarked) | -0.19
14 | COc1ccc(F)cc1S(=O)(=O)NCC1CCCO1 (centres unmarked) | 11.9
15 | COc1cccc(C(c2sc3nc(C)nn3c2O)N2CCN(C(=O)c3ccco3)CC2)c1 (centres unmarked) | 4.28
16 | O=S(=O)(Cc1ccc(Cl)cc1)c1ccccc1-c1nnc(-c2ccc(Cl)cc2)o1 | 5.26
17 | C[N+]1(CC(=O)OC2CCCCCCCCCCC2)CCCC1.[I-] | 0.705
18 | CCC(C)(C)n1nnnc1C(c1ccncc1)N1CCN(c2cccc(OC)c2)CC1 (centres unmarked) | 3.98
19 | COc1ccc(NC(=O)CCN2CCN(c3ccccc3F)CC2)c(OC)c1 | 5.24
20 | O=C(Cc1c(F)cccc1Cl)NC1=NCCS1 | 2.96
21 | O=C(N/N=C/C1=C(N2CCOCC2)C(=C\c2ccccc2)/CC1)Nc1ccccc1 | 8.83
22 | CS/C(=N\N(C)C(N)=O)c1ccccc1 | 5.01
23 | COc1ccc(C(=O)C2CCCN(C(=O)CCc3ccccn3)C2)c(C)c1 (centres unmarked) | 9.98

Row | Compound | hERG current change (%, negative = inhibition) at 1uM [%]
24 | CCn1c(SCc2nc3ccccc3c(=O)[nH]2)nnc1C(C)NC(=O)c1ccccc1F (centres unmarked) | 14.2
25 | O=C(NNc1ccccn1)c1ccc(Cl)nc1 | 7.95
26 | O=[N+]([O-])c1ccc(O)c(/C=N/NC2=NS(=O)(=O)c3ccccc32)c1 | 13.5
27 | CCOC(=O)C(C)(C)NS(=O)(=O)c1ccc(Cl)c([N+](=O)[O-])c1 | 4.07
28 | CNC(=O)CSc1nc(N)c2c3c(sc2n1)CCC3 | -10.6
29 | CCN(CC)c1ccc(NC(=O)c2cc(Cl)ccc2OC)cc1 | -6.18
30 | CCOC(=O)[C@H]1[C@H]2COc3cc(OC)ccc3[C@@H]2N2C(=O)CN(Cc3ccco3)C(=O)[C@@]12C | 15.1
31 | O=C(NCc1ccco1)c1cccnc1-c1nc2ccccc2s1 | -5.39
32 | CCC(C)S(=O)(=O)c1snnc1C (centres unmarked) | 13.6
33 | Cc1ccn2cc(CCNC(=O)c3ccc(Br)o3)nc2c1 | -14.8
34 | CC1CCCCC1NC(=O)CCn1ccc2cc(S(=O)(=O)N3CCCC3)ccc21 (centres unmarked) | 7.83
35 | COC(=O)C1=C(C)NC(C)=C(C(=O)OC)C1c1ccco1 | 12.7
36 | CN(C)S(=O)(=O)c1ccc(C(=O)OCC(=O)NCc2ccccc2)cc1 | 10.4
37 | CN(C)C(=O)c1ccc(NC(=O)c2ccccc2-c2ccccc2)cc1 | 16.2
38 | CCCCN(C(=O)/C=C/c1ccccc1)C1CCS(=O)(=O)C1 (centres unmarked) | 0.645
39 | COc1ccc(Cl)cc1NS(=O)(=O)c1cn(C)nc1C | 10.5
40 | CCOP(=O)(OCC)C(NC(=O)Nc1ccc(C)cc1)C(N)=O (centres unmarked) | 9.23
41 | CC(C)C(NC(=O)c1cccnc1)C(=O)O (centres unmarked) | 9.2
42 | CCc1ccc(NC(=O)C2CCCN(S(=O)(=O)c3cccnc3)C2)cc1 (centres unmarked) | 10.8
43 | N#Cc1cccc(NCC(=O)Nc2cccc(S(=O)(=O)N3CCCCC3)c2)c1 | -4.8
44 | CC(C)=CCC/C(C)=C/C(N)=O | 10.3
45 | Cc1cc(C)c(C(=O)CSc2nc(C)cc(=O)[nH]2)c(C)c1 | 15.6
46 | COc1c(O[C@@H]2O[C@H](CO)[C@@H](O)[C@H](O)[C@H]2O)cc2c(c1OC)-c1ccc(SC)c(=O)cc1C(NC(C)=O)CC2 (some centres unmarked) | -1.1

Row | Compound | hERG current change (%, negative = inhibition) at 1uM [%]
47 | Cc1ccc(S(=O)(=O)N2CCN(C(=O)COC(=O)C3CCC3)CC2)cc1 | 6.96
48 | O=c1[nH]c2c(n(C3CCCCC3)c1=O)CCC2 | -5.16
49 | CC(C)Oc1ccc(C2NC(=O)NC2=O)cc1 (centres unmarked) | 25.1
50 | CC(Oc1ccc(Br)cc1)C(=O)Nc1ccncc1 (centres unmarked) | 0.656
51 | Cc1ccc(-c2nnc(SCC(=O)N/N=C/c3c(C)nn(-c4ccccc4)c3C)n2-c2ccccc2)cc1 | 8.19
52 | Cc1ccc(-c2cn3c(n2)CCCC3)cc1.Cl | 0.153
53 | Cc1cc(NC(=O)CSCC(=O)OCC(=O)c2cccc(Br)c2)no1 | 0.666
54 | COc1cc(/C=C2\SC(=S)N(NS(=O)(=O)c3ccccc3)C2=O)ccc1O | 5.22
55 | O=C(CCc1c[nH]c2ccccc12)N=Nc1c(O)[nH]c2ccccc12 | 13.5
56 | O=C(c1cc2cc(Br)ccc2[nH]1)N1CCc2ccccc21 | 13
57 | O=C(NCc1ccco1)c1ccc(Cl)cc1[N+](=O)[O-] | 13.7
58 | O=C(C[n+]1ccccc1)Nc1c(Cl)cc(Cl)cc1Cl.[Cl-] | 14
59 | CC(=O)c1ccc2noc(-c3cccc(C)c3)c2c1 | -3.65
60 | O=C(CCNS(=O)(=O)c1cccc2nsnc12)NCCc1ccccc1 | 4.74
61 | CC/C(=N\NC(=O)c1ccc(N2CCCC2=O)cc1)c1ccccc1 | 10.8
62 | Cc1ccc(C(=O)NCCc2csc(-c3cccnc3)n2)cc1 | 15.6
63 | CCOC(=O)CSc1nnc(-c2ccc(S(=O)(=O)N3CCOCC3)cc2)n1-c1ccccc1 | 14.6
64 | COc1ccccc1C1CCN(Cc2ccc(Cl)cc2Cl)CC1 | 12
65 | Cc1cccc2nc(CNC(=O)CC3C(=O)NCCN3Cc3cccc(F)c3)cn12 (centres unmarked) | 5.15
66 | CN(CCO)c1nc(N)c(C#N)c(CC#N)c1C#N | 11.3
67 | O=C(Nc1cccc(Cl)c1)N1CCCC1 | 12.8
68 | CCCCN(C(=O)CNC(=O)c1cccs1)C(C(=O)NC1CCCCC1)c1cccnc1 (centres unmarked) | 9.74
69 | Cc1ccc(COCC(CC(C)C)N2CCN(C(=O)c3cccc(C(F)(F)F)c3)CCC2=O)cc1 (centres unmarked) | 6.44

Row | Compound | hERG current change (%, negative = inhibition) at 1uM [%]
70 | S=C(NCc1ccc2[nH]c3c(c2c1)CCCC3)Nc1ccccc1Cl | 14.3
71 | CC(C)(C)C1=Nn2c(nnc2-c2ccccc2F)SC1 | 6.92
72 | COc1cc(OC)cc(-c2cc3nc(C)cc(N4CCN(C(=O)c5ccco5)CC4)n3n2)c1 | 10
73 | O=C(Nc1ccc([N+](=O)[O-])cc1)Nc1ccon1 | 7.99
74 | COCCN1Cc2cccc(C(=O)Nc3cc(OC)ccc3OC)c2C1=O | 0.697
75 | CCOC(=O)C1C(=O)C=C(C)C(C(=O)OCC)C1c1ccc(OC)cc1 (centres unmarked) | 1.95
76 | CNC(=O)CN(c1ccc(Oc2ccccc2)cc1)S(=O)(=O)c1ccc(C)cc1 | 12.6
77 | CCOc1cccc2cc(C(=O)N3CCOCC3)c(=O)oc12 | 18.9
78 | C/C(=N\NC(=O)c1c(C)nc2ccccn12)c1ccc(C(C)(C)C)cc1 | 11.3
79 | N#CCc1ccc(NS(=O)(=O)c2ccc(N3CCCC3=O)cc2)cc1 | -0.504
80 | Cc1cc(C)c(N(C(=O)Cn2nnc3ccccc32)C(C(=O)NC(C)(C)C)c2ccsc2)c(C)c1 (centres unmarked) | -11.3
81 | COc1ccc(N2CCCn3c2nc2c3c(=O)n(CCc3ccccc3)c(=O)n2C)cc1 | 4.58
82 | Cc1ccc(C2CC2c2n[nH]c(=S)n2-c2ccc(C)cc2)cc1 (centres unmarked) | 5.98
83 | CC(C)CCNC(=O)c1c[nH]c2ccc(S(=O)(=O)N3CCC4(CC3)OCCO4)cc2c1=O | 7.76
84 | COc1ccc(-c2nc(NC(=O)CSc3nnc(C)s3)ns2)cc1 | 1.46
85 | CCCN(CC1CC1)C(=S)NC(=O)C1CC1 | 20.1
86 | COc1ccc(C2C(C(=O)NCCN(C)C)c3cc(OC)c(OC)cc3C(=O)N2C)cc1OC (centres unmarked) | 11.7
87 | O=C1CN=C(c2ccc[nH]2)c2cc(Cl)ccc2N1 | 7.4
88 | Cc1cccc(-c2nc(CN3CCCC(C(=O)NC4CCCCCC4)C3)c(C)o2)c1 (centres unmarked) | -15.4
89 | O=C(CSc1ccc(-c2cccs2)nn1)c1cccs1 | -6.94

Source: paper PMC4336329 (PLoS ONE, 2015)
